Screen size: about 310,000 compounds; about 2,200 (0.71%) showed an effect of 50% or more. The effect is printed as a negative number. The list shows a part of the results.
Biological target: human ether-à-go-go-related gene (hERG) potassium channel (human, UniProt Q12809)
Assay: primary screen, population patch clamp on CHO cells stably expressing hERG

Chain of human ether-à-go-go-related gene (hERG) potassium channel (Q12809 whole entry, looked up): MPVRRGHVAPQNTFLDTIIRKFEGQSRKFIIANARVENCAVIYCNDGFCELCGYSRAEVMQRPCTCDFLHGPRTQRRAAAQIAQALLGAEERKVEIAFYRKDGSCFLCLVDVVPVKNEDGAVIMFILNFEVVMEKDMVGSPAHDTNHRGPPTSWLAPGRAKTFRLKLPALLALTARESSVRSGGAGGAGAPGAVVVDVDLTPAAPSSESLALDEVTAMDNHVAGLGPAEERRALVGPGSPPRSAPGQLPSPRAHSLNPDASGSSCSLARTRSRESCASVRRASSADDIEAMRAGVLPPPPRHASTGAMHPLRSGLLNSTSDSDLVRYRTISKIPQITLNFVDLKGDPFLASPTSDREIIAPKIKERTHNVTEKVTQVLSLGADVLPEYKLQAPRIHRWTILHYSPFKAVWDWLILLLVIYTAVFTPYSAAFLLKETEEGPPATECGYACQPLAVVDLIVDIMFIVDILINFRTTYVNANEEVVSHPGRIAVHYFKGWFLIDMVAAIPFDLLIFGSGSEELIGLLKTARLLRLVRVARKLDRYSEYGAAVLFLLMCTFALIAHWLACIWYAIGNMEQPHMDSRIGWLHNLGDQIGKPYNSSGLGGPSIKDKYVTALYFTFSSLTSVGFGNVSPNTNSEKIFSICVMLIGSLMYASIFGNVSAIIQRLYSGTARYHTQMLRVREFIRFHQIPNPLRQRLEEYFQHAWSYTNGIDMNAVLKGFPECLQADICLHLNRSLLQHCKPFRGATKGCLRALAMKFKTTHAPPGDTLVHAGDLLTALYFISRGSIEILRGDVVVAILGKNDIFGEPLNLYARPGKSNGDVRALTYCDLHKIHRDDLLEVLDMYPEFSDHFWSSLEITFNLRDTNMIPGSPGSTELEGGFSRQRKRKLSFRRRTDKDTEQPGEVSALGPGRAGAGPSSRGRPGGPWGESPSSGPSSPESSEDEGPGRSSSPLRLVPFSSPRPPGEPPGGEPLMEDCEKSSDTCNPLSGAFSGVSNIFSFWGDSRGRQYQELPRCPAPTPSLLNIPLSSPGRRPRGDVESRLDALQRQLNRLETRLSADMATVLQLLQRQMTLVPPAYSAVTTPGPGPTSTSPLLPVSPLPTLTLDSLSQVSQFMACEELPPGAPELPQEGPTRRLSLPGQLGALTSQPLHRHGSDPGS

SMILES | hERG current change (%, negative = inhibition) at 1uM
Cn1c(SCC(=O)NCc2ccco2)nnc1C1CCCC1 | 11.7%
CC1CN(C(=S)Nc2cccc(Cl)c2)CC(C)O1 (stereo not drawn) | 17.7%
COc1ccc(/C=N/NS(=O)(=O)c2ccc(F)cc2)cc1CN1CCSCC1 | 7.52%
O=C(Cc1n[nH]c(=O)[nH]c1=O)N/N=C/c1cccc(O)c1 | 9.82%
Cc1ccc2c(c1)nnn2C1CCN(S(=O)(=O)c2cccc(S(=O)(=O)N(C)C)c2)CC1 | 8.71%
Cc1cc(Br)ccc1NC(=O)CSc1nnc(CN2CCOCC2)n1C | 12.3%
CN(C)c1ccc(/C=C(\NC(=O)c2ccccc2)C(=O)NCCCN2CCOCC2)cc1 | 11.5%
CN(C)C1=NC[C@H](Cc2ccccc2)N1CC1CCC(C(C)(C)C)CC1 (stereo partly drawn) | -2.63%
CC1CCCCN1S(=O)(=O)c1ccc(C(=O)Nc2nnc(-c3ccccn3)o2)cc1 (stereo not drawn) | 14.5%
Cc1cc(=O)c2ccc(Cl)cc2[nH]1 | 17.6%
Br.CC(C)(C)C(=O)CN1C2=NCCN2c2ccccc21 | 2.72%
CCCCCCCCCCCC1=C(O)C(=O)C=C(O)C1=O | 14.4%
O=C(NCCCN1CCCC1=O)c1cc(-c2cccnc2)nc2ccc(Cl)cc12 | 0.512%
Cc1ccc(C(=O)NC(=S)N2CCCCCC2)cc1 | -2%
CSc1nnc(NC(=O)C23CC4CC(CC(C4)C2)C3)s1 | 11.3%
FC(F)(F)c1cccc(NC(=S)NC2CCCC2)c1 | 12.2%
Cc1cc(=O)n2c(ccc3ccccc32)c1C#N | 3.24%
O=C1OC(Nc2cc(Br)cc3cccnc23)c2ccccc21 (stereo not drawn) | -0.215%
CCC(C)NC(=O)CSc1nc2ccsc2c(=O)n1NC(=O)c1ccccc1 (stereo not drawn) | 10.1%
Cc1ccc(C(=O)N/C(=C/c2ccc(Cl)cc2)C(=O)NCC2CCCO2)cc1 (stereo not drawn) | -5.12%
O=C(CSC1=NCCS1)NC1CCCC1 | 4.35%
CC(C)n1nc(C(=O)Nc2nnc(C3CC3)s2)c2ccccc2c1=O | 11.5%
CCCN1C2CCCC1CC(NC(=S)Nc1cc(C)cc(C)c1)C2 (stereo not drawn) | -81.4%

SMILES | hERG current change (%, negative = inhibition) at 1uM
O=C(CC1C(=O)NCCN1C(=S)Nc1ccccc1)Nc1ccc2c(c1)OCCO2 (stereo not drawn) | -1.18%
COc1ccc(C(C(=O)NC2CCCC2)N(Cc2ccccc2)C(=O)c2snc(C(N)=O)c2N)cc1OC (stereo not drawn) | 7.99%
CCOCC(=O)Nc1c(C)n(C)n(-c2ccccc2)c1=O | 10.8%
O=C(COC(=O)c1ccc(Br)o1)Nc1nc2c(F)c(F)c(F)cc2s1 | 13.8%
CC(C)CNC(=O)CSc1nnc(-c2ccc(Cl)cc2)n1N | 3%
COCCNP(=O)(c1ccccc1)c1nc2ccccc2s1 (stereo not drawn) | -5.08%
CCOc1ccc(-c2nc(CSCC(=O)NCCN3CCOCC3)c(C)o2)cc1 | 9.19%
COc1ccc(C(=O)Nc2ccc(S(=O)(=O)Nc3onc(C)c3C)cc2)c(OC)c1 | 9.23%
O=C(NC1CCCCCC1)C1c2ccccc2C(=O)N1Cc1ccco1 (stereo not drawn) | -3.1%
Cl.O=C(CN1C2CCC1CC(NC(=O)NC1CCCCC1)C2)NC1CC1 (stereo not drawn) | 6.8%
CCCCn1c(-c2cccc(C)c2)nc2cc3[nH]c(=O)c(C(C)C)nc3cc21 | 12.5%
CC1CC(C)CN(S(=O)(=O)c2ccc(C(=O)NN3CCOCC3)cc2)C1 (stereo not drawn) | 7.08%
CCCn1c(SCC(=O)Nc2c(C)cccc2CC)nnc1C(C)C | 8.79%
O=C(COc1ccc(Cl)cc1)N(Cc1ccccc1)c1ccccn1 | -1.62%
COc1ccc(NC(=O)CNC(=O)c2nn(-c3ccc(OC)c(Cl)c3)c(=O)c3ccccc23)c(OC)c1 | 11.5%
COc1ccc(C)cc1NC(=O)Cn1cnnn1 | 13.8%
COc1ccccc1N/C=C1/Sc2cc(Cl)ccc2NC1=O | 9.08%
CCOC(=O)C(C)n1cnc2c1c(=O)[nH]c(=O)n2C (stereo not drawn) | 8.76%
CCn1c(-c2sc(-c3ccccc3)nc2C)n[nH]c1=S | 13.1%
O=C(O)c1ccc(CSc2nc3ccccc3o2)cc1 | 5.85%
CCOC(=O)N1CCN(C(=O)c2c(-c3c(Cl)cccc3Cl)noc2C)CC1 | 3.28%
CN(C)C(=S)Nc1ccc(Cl)cc1 | 22%
Cc1c(Cl)cccc1-n1c(SCC(=O)NCc2ccccc2Cl)nnc1-c1ccncc1 | 4.95%

SMILES | hERG current change (%, negative = inhibition) at 1uM
CC(C)Cn1nc(C(=O)Nc2cccc(C(=O)NC3CC3)c2)c2ccccc2c1=O | -18.4%
CCOc1ccc(NC(=O)COC(=O)CC2CCCCC2)cc1 | 6.04%
O=c1ccc2cc(S(=O)(=O)N3CCN(c4ccccc4)CC3)ccc2[nH]1 | 5.49%
CCOc1nc(C)ccc1-c1noc(C)n1 | 2.75%
O=C(COC(=O)c1cn(-c2ccccc2)nc1-c1ccccc1)c1ccc([N+](=O)[O-])cc1 | 7.57%
Cc1nn2c(N)c(-c3ccccc3)cnc2c1-c1ccccc1 | 15%
O=C(c1ccc(Sc2cccc(Cl)c2)c([N+](=O)[O-])c1)N1CCN(c2ccccn2)CC1 | 13.5%
CN(CC(=O)Nc1ccc(F)cc1)C(=O)CSc1nc2ncc(Cl)cc2[nH]1 | 8.21%
C=CCNC1=C(Cl)C(=O)N(Cc2ccccc2)C1=O | 13.9%
COc1cccc(NC(=O)CSc2nc3ccccc3n2C)c1 | -3.2%
CCc1cc(CNC(=O)C2CCC(=O)N(CCc3ccc(OC)cc3)C2)on1 (stereo not drawn) | 6.44%
COCCNS(=O)(=O)c1ccc(Cl)c(C(=O)NC2CCN(Cc3ccccc3)CC2)c1 | 9.74%
Cc1ccc(S(=O)(=O)/N=C(/Nc2ccc(O)c(C(=O)O)c2)c2ccccc2)cc1 | 7.5%
Cn1c(=O)c2c(c3ccccc31)OC(C)(C)CC2 | 6.23%
COc1ccccc1-n1cnnc1SCC(=O)Nc1cc(C)on1 | 7.75%
Cc1ccc(Sc2ccc(C=C3C(=O)N(C)C(=O)N(C)C3=O)o2)cc1 | 7.48%
CCOC(=O)C1CCN(C(=O)CC2(CC(=O)O)CCCC2)CC1 | 4.94%
Cc1ccc(NC(=O)c2cnn(C)c2)cc1[N+](=O)[O-] | 6.16%
O=C(Nc1cccc(NC(=O)c2ccccc2Cl)c1)c1cccs1 | 14.6%
COc1ccccc1NS(=O)(=O)c1ccc(/C=C/C(=O)N2CCN(C(C)=O)CC2)cc1 | 3.69%
COc1ccc(-c2[nH]ncc2CN(C)C(C)c2cccs2)c(F)c1 (stereo not drawn) | 6.62%
Cc1cc(SCC(=O)Nc2ccc(O)cc2)n2nc(C)c(-c3ccccc3)c2n1 | 7.76%
COc1ccc2oc(N)c(C=O)c(=O)c2c1 | 11.4%

SMILES | hERG current change (%, negative = inhibition) at 1uM
CCCCC1=CC2=C(c3ccco3)C(=O)C(C)(OC(=O)c3ccc(OC)cc3)C(=O)C2=CN1C(CO)CO (stereo not drawn) | 9.2%
CCC(C)N(C(=O)Cn1c(=O)cnc2ccccc21)C1CCS(=O)(=O)C1 (stereo not drawn) | 0.0556%
CC1CCCN(CC(O)COCc2ccc3c(c2)OCO3)C1.Cl (stereo not drawn) | -0.142%
Cc1nn(-c2ccccc2)c(N)c1C1(O)C(=O)N(C(C)C)c2ccccc21 (stereo not drawn) | 9.1%
CCC(Oc1ccccc1)C(=O)N1CCC(C(N)=O)CC1 (stereo not drawn) | 16.3%
O=C1NCCCN1Cc1ccc(Cl)cc1 | 4.46%
NC(=O)c1ccc(NC(=O)CSc2nc3ccccc3c(=O)n2CCCN2CCOCC2)cc1 | 12.3%
Cn1c(=O)c(C(=O)c2ccc(S(C)(=O)=O)c(Cl)c2Cl)c(O)c2ccccc21 | 10.8%
CC(/C=C1\SC(=S)N(CCC(=O)Nc2nc(C)cs2)C1=O)=C\c1ccccc1 | 13.9%
S=c1[nH]nc(-c2ccc(Cl)cc2Cl)n1-c1ccccc1 | 14.8%
CCN1CCN(C(=O)c2ccc3c(c2)N(Cc2ccc(C)cc2)CCS3)CC1 | 4.13%
CC1CN(S(=O)(=O)c2cccc(C(=O)OCC(=O)c3cccs3)c2)CC(C)O1 (stereo not drawn) | -3.03%
Cc1ccccc1CSCC(=O)c1c(N)n(CC(C)C)c(=O)n(C)c1=O | 6.09%
O=C(Cn1c(=O)n(CC2CS2)c2ccccc21)N1CCCCCC1 (stereo not drawn) | 7.16%
CCCCCN(C(=O)NC(=O)Nc1ccc(C)cc1)S(=O)(=O)c1ccccc1 | 7.04%
CCC(C)c1nc2c(c(N3CCC3=O)c1-c1ccccc1)CCCC2 (stereo not drawn) | 5%
CC(C)n1c(CSCc2ccc(Cl)cc2Cl)n[nH]c1=S | 5.17%
Clc1cccc(Cl)c1COc1ccncc1 | 10.6%
COc1ccc(CC(=O)N(C)Cc2cccc(OC)c2OC)cc1S(=O)(=O)N1CCOCC1 | 1.78%
O=C(c1cccc(Cl)c1)N1CCCC(c2ccc(Cl)cc2)=N1 | 24.6%
COc1ccc(C2=CC(=O)CC(c3ccccc3)C2)cc1 (stereo not drawn) | 26.8%

From paper PMC4336329 (PLoS ONE, 2015)
